PubChem BioAssay AID1159614 (National Center for Advancing Translational Sciences (NCATS), 2016)
Out of some 45,000 compounds screened, about 65 (0.1%) were called active. Calls come from the whole dose curve; as a rule, active = well fitted activation curve with a large enough effect; inconclusive = small, poorly fitted or top-dose-only effect; inactive = no such curve, though single readings can be large or run the other way. The list shows a part of the results.

Target: Galactocerebrosidase (Homo sapiens) (UniProt P54803)
Test: A Novel Cell-Based Assay to Identify Small Molecules for B -Galactocerebrosidase; note: 0% is about no effect; nearly all actives have a fitted effect of over 65% in size
Conditions: 145M-Twi-hGALC-G270D cells (Twitcher mouse brain line with human GALC G270D), HMU-beta-Gal fluorescence, 48 h; series mostly up to 57.5 µM; activation: at the top concentration
Summary of the method: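 Fluorogenic HMU-b-Gal hydrolysis (0.1 mM final, pH 5.2 citrate-phosphate with 1 mg/mL sodium taurocholate; carbonate stop buffer) measures mutant GALC activity after compound treatment of live 145M-Twi Twitcher brain cells stably carrying human GALC-G270D, with wild-type GALC line alongside; activation sought.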

Chain of UniProt P54803 (P54803 whole entry, looked up): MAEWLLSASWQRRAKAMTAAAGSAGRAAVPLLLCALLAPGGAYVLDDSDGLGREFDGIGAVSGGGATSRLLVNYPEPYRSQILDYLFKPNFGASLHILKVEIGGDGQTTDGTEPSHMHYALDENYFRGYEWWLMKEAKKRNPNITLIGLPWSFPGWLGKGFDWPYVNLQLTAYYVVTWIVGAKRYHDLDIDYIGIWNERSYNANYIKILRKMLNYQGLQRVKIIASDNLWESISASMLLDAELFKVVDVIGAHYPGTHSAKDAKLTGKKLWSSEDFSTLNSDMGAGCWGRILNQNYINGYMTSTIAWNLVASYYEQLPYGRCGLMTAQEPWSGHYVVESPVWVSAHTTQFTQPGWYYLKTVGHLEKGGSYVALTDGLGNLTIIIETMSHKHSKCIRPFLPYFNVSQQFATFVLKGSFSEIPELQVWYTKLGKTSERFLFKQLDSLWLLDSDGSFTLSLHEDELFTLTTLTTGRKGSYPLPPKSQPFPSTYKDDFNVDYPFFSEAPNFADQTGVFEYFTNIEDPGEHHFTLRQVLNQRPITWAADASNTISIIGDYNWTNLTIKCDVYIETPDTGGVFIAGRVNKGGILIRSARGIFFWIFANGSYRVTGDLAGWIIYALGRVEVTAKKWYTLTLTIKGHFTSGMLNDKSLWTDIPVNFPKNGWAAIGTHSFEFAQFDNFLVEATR

activation, inactive:
COc1ccccc1N1CCN(C(=O)C2CCN(S(=O)(=O)c3cn(C)cn3)CC2)CC1 -18.8%
COc1ccc(-c2cc(=O)c3c(O)cc(O[C@@H]4O[C@H](CO[C@@H]5O[C@@H](C)[C@H](O)[C@@H](O)[C@H]5O)[C@@H](O)[C@H](O)[C@H]4O)cc3o2)cc1O -14.3%
CCCCc1ccc(NS(=O)(=O)c2cc3c4c(c2)CC(=O)N4CCC3)cc1 -3.04%
COc1cccc(N2CCN(C(=O)c3cnn(-c4ccccc4Cl)c3C3CCN(C(=O)OC(C)(C)C)CC3)CC2)c1 -16.1%
CCc1ccc2oc(-c3cc(NC(=O)c4cc(OC)c(OC)c(OC)c4)ccc3O)nc2c1 -17.2%
CCOCCCNC(=O)c1ccc2c(=O)n(CCc3ccccc3)c(=O)[nH]c2c1 -18.2%
CC(=O)c1ccc(NC(=O)CSc2nc(=O)n(Cc3ccccn3)c3c2CCC3)cc1 -6.07%
COc1cccc(NC(=O)C2CCC(CNS(=O)(=O)c3csc(C(N)=O)c3)CC2)c1 (stereo not given) -17.6%
CCC(=O)N1CCc2cc(S(=O)(=O)NC(CC(C)C)C(=O)Nc3cccc(C)c3C)ccc21 (stereo not given) -6.39%
COc1ccccc1C(=O)n1nc(-c2ccccc2)nc1NCc1ccc(Cl)cc1 -31.3%
O=C(CCc1ccccc1)NC1CC(=O)N(c2cccc(F)c2)C1 (stereo not given) -18%
CN(C)c1ccc(CNC(=O)CN2C(=O)C3CCCCN3c3ccc(C(=O)N4CCCC4)cc32)cc1 (stereo not given) -4.82%
Cc1ccc(NS(=O)(=O)c2ccc3oc(=O)c4ncn(C)c4c3c2)cc1C -3.83%
COc1ccc(CCNc2ncnc3c2cnn3-c2ccc(C)c(Cl)c2)cc1 -16.9%
COc1ccc(OCC(O)Cn2c(=N)n(CCN3CCCCC3)c3ccccc32)cc1 (stereo not given) -23.8%
O=C(CCC1N=C2c3ccccc3N=C(SCc3ccc(Cl)cc3)N2C1=O)NCc1cccs1 (stereo not given) -3.15%
CCC(C)NC(=O)c1cc2n(n1)CCCN(Cc1ccc(C)cc1)C2=O (stereo not given) -16.2%
Cc1ccc(S(=O)(=O)C(CNC(=O)C(=O)NCCc2ccc(Cl)cc2)c2ccco2)cc1 (stereo not given) -16.2%
Cc1ccc(N2CCN(C(=O)c3cccn4c(=O)c5ccc(Cl)cc5nc34)CC2C)cc1 (stereo not given) -21.1%
Cc1c2cnn(CC(=O)NCc3ccc(Cl)cc3)c(=O)c2c(C)n1Cc1ccc(F)cc1 -5.74%
COc1ccc(CCNS(=O)(=O)c2c(C)nc3sccn3c2=O)cc1OC -0.0078%
O=C(Cc1ccc(F)cc1)NCCc1csc2nc(-c3ccccc3F)nn12 -10.6%
Cc1ccc(Nc2nc(N)nc(CSc3nc4ccccc4s3)n2)cc1 -6.74%
COc1ccc(C(CNC(=O)c2oc3cc(C)c(C)cc3c2C)N2CCCCC2)cc1 (stereo not given) -7.51%
CCn1cc(C(=O)N2CCN(c3ccccc3)CC2)c(=O)c2cc(S(=O)(=O)N(C)C)ccc21 -24.4%
